# Results reported in publication PMC5008309.
# The chains behind the UniProt entries cited, without tags or fusion partners. Where a name states a change or a piece, a line headed by the entry shows the natural chain unless it says otherwise. Residues count along the entry.
# UniProt P21860: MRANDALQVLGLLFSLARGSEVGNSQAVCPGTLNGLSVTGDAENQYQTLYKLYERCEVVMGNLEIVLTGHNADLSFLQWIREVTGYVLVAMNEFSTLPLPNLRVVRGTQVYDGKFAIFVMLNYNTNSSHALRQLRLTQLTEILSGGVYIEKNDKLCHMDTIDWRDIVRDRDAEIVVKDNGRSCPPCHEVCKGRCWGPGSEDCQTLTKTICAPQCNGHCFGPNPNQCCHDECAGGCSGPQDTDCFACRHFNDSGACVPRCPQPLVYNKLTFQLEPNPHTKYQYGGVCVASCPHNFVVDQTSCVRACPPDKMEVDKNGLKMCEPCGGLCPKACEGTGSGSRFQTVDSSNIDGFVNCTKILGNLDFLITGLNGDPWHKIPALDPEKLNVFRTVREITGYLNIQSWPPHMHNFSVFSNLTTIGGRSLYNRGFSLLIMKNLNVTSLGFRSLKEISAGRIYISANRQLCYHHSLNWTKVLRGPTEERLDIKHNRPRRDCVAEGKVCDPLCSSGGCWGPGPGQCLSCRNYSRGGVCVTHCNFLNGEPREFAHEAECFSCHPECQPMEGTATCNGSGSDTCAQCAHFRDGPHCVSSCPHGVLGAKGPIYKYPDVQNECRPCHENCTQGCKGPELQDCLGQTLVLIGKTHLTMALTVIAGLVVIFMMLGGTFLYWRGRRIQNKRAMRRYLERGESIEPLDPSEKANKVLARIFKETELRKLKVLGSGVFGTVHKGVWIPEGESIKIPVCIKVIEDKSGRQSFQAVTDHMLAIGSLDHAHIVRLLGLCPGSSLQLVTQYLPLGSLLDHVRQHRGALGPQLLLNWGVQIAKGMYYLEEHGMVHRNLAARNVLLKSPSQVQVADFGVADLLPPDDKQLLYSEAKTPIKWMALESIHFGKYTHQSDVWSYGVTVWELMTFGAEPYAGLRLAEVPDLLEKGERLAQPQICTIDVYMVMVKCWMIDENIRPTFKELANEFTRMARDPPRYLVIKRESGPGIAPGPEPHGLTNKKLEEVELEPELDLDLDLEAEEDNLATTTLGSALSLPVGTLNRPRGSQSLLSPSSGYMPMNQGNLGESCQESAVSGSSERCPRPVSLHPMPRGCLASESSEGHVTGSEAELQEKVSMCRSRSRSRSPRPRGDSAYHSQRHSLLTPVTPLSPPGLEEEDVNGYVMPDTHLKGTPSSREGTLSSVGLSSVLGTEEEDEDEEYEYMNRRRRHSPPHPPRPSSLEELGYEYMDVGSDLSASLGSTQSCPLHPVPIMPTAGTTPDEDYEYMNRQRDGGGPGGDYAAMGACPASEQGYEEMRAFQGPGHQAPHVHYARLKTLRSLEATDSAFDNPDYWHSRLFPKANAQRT
# ERBB3-3xFLAG (pERBB3-3xFLAG), wild type: residues 20-1342 of P21860
# ERBB3-ΔA lacking the C-terminal tail region: residues 20-979 of P21860
# ERBB3-TK only: residues 701-979 of P21860
# ERBB3-CRΔTK (residues 980-1342): residues 980-1342 of P21860
# Numbering of substitutions follows the chain as printed. Names and notes keep the numbering of the source. These are yes or no findings as the source states them, for the method shown. In cells and extracts the contact can be indirect. Some results given as binding are weak or reduced against the parent protein; the word gives no strength. For part of these data: Tags and fused reporters may be left off the sequences shown.
# B1: HA-tagged APIP (pHA-APIP) expressed in HEK293T cells (protein, UniProt Q96GX9-1 1-242)
# chain: MSGCDAREGDCCSRRCGAQDKEHPRYLIPELCKQFYHLGWVTGTGGGISLKHGDEIYIAPSGVQKERIQPEDMFVCDINEKDISGPSPSKKLKKSQCTPLFMNAYTMRGAGAVIHTHSKAAVMATLLFPGREFKITHQEMIKGIKKCTSGGYYRYDDMLVVPIIENTPEEKDLKDRMAHAMNEYPDSCAVLVRRHGVYVWGETWEKAKTMCECYDYLFDIAVSMKKVGLDPSQLPVGENGIV
# B2: APIP-VC (protein, UniProt Q96GX9-1 1-242)
# chain: B1 chain
# B3: APIP-VN (protein, UniProt Q96GX9-1 1-242)
# chain: B1 chain
# B4: APIP-ΔA mutant lacking the N-terminal region (residues 1-60) (domain or fragment, UniProt Q96GX9-1 61-242)
# chain: SGVQKERIQPEDMFVCDINEKDISGPSPSKKLKKSQCTPLFMNAYTMRGAGAVIHTHSKAAVMATLLFPGREFKITHQEMIKGIKKCTSGGYYRYDDMLVVPIIENTPEEKDLKDRMAHAMNEYPDSCAVLVRRHGVYVWGETWEKAKTMCECYDYLFDIAVSMKKVGLDPSQLPVGENGIV
# B5: APIP-ΔB mutant lacking the N-terminal region (residues 1-119) (domain or fragment, UniProt Q96GX9-1 120-242)
# chain: AAVMATLLFPGREFKITHQEMIKGIKKCTSGGYYRYDDMLVVPIIENTPEEKDLKDRMAHAMNEYPDSCAVLVRRHGVYVWGETWEKAKTMCECYDYLFDIAVSMKKVGLDPSQLPVGENGIV
# B6: 3xFLAG-tagged APIP H115A (protein, UniProt Q96GX9-1 1-242)
# chain: B1 chain with H115A
# B7: 3xFLAG-tagged APIP H117A (protein, UniProt Q96GX9-1 1-242)
# chain: B1 chain with H117A
# B8: 3xFLAG-tagged APIP H195A (protein, UniProt Q96GX9-1 1-242)
# chain: B1 chain with H195A
# B9: 3xFLAG-tagged APIP triple mutant (T.M., H115/H117/H195A) (protein, UniProt Q96GX9-1 1-242)
# chain: B1 chain with H115A, H117A, H195A
# B10: Apaf-1-interacting protein (APIP), endogenous in SNU-16 cells (protein, UniProt Q96GX9 1-242)
# chain: B1 chain
# B11: APIP-ΔC mutant lacking the C-terminal region (residues 181-242) (domain or fragment, UniProt Q96GX9-1 1-180)
# chain: MSGCDAREGDCCSRRCGAQDKEHPRYLIPELCKQFYHLGWVTGTGGGISLKHGDEIYIAPSGVQKERIQPEDMFVCDINEKDISGPSPSKKLKKSQCTPLFMNAYTMRGAGAVIHTHSKAAVMATLLFPGREFKITHQEMIKGIKKCTSGGYYRYDDMLVVPIIENTPEEKDLKDRMAHA
# Tests used:
# [1] = molecular target: T1, GST-APIP (human) (UniProt Q96GX9); assay: pull-down; in vitro translated 35S-methionine-labeled ERBB3 incubated with purified GST or GST-APIP immobilized on glutathione-Sepharose 4B beads; SDS-PAGE, autoradiography; only the target purified
# T1 sequence: B1 chain
# [2] = molecular target: T2, APIP-VC (human) (UniProt Q96GX9); assay: split reporter; split-Venus BiFC; cells transfected with VN- and VC-fusion constructs, 37°C for 18 h; living cells imaged by fluorescence microscopy; unlabeled full-length ERBB3 co-expressed as competitor
# T2 sequence: B1 chain
# [3] = molecular target: T3, Apaf-1-interacting protein (APIP), endogenous in SNU-16 cells (human (endogenous in SNU-16)) (UniProt Q96GX9); assay: co-IP; endogenous proteins of SNU-16 cells (growing, or treated with 50 ng/ml HRG-β1 for 10 min; control or APIP knockdown cells); CHAPS buffer (30 mM Tris-Cl pH 7.5, 150 mM NaCl, 1% CHAPS); 12 h at 4°C with anti-APIP, anti-ERBB3 or anti-ERBB2 antibody; western blotting
# T3 sequence: B1 chain
# [4] = molecular target: ERBB3-ΔA lacking the C-terminal tail region (UniProt P21860); assay: co-IP; HEK293T cells co-transfected with pHA-APIP (or APIP deletion mutant) and pERBB3-3xFLAG (or ERBB3 deletion mutant) for 24 h; whole-cell lysates immunoprecipitated; western blotting
# [5] = molecular target: ERBB3-TK only (UniProt P21860); assay: as above
# [6] = molecular target: ERBB3-CRΔTK (residues 980-1342) (UniProt P21860); assay: as above
# [7] = molecular target: T4, HA-tagged APIP (pHA-APIP) expressed in HEK293T cells (human) (UniProt Q96GX9); assay: co-IP; HEK293T cells co-transfected with 3xFLAG-tagged APIP (WT or histidine mutants) and HA-tagged APIP for 18 h; RIPA buffer; lysates incubated 2 h at 4°C with monoclonal HA or FLAG antibody, protein A/G beads; western blotting
# T4 sequence: B1 chain
# [8] = molecular target: ERBB3-VN (UniProt P21860); assay: split reporter; split-Venus BiFC; cells transfected with VN- and VC-fusion constructs, 37°C for 18 h; living cells imaged by fluorescence microscopy; unlabeled full-length ERBB3 co-expressed as competitor
# [9] = molecular target: ERBB3-VC (UniProt P21860); assay: as above
# [10] = molecular target: ERBB3-3xFLAG (pERBB3-3xFLAG), wild type (UniProt P21860); assay: co-IP; HEK293T cells co-transfected with pHA-APIP (or APIP deletion mutant) and pERBB3-3xFLAG (or ERBB3 deletion mutant) for 24 h; whole-cell lysates immunoprecipitated; western blotting
# [11] = molecular target: phosphorylated ERBB3 (Y1289), endogenous in SNU-16 cells treated with HRG-β1 (human (endogenous in SNU-16)) (UniProt P21860); assay: co-IP; endogenous proteins of SNU-16 cells (growing, or treated with 50 ng/ml HRG-β1 for 10 min; control or APIP knockdown cells); CHAPS buffer (30 mM Tris-Cl pH 7.5, 150 mM NaCl, 1% CHAPS); 12 h at 4°C with anti-APIP, anti-ERBB3 or anti-ERBB2 antibody; western blotting
# [12] = molecular target: ERBB3 (HER3), endogenous in SNU-16 cells (human (endogenous in SNU-16)) (UniProt P21860); assay: as above
molecule,measurement,setting,value
"in vitro translated, 35S-methionine-labeled ERBB3 (from UniProt P21860 1-1342) (receptor)",binding,[1],binds
unlabeled full-length ERBB3 (from UniProt P21860 20-1342) (receptor),binding,[2],binds
"ERBB3 (HER3), endogenous in SNU-16 cells (from UniProt P21860 20-1342) (receptor)",binding,[3],binds
B1,binding,[4],no binding
same,binding,[5],no binding
same,binding,[6],binds
same,binding,[7],binds
B2,binding,[8],binds
B3,binding,[9],binds
B4,binding,[10],binds
B5,binding,[10],binds
B6,binding,[7],binds
B7,binding,[7],binds
B8,binding,[7],binds
B9,binding,[7],binds
B10,binding,[11],binds
same,binding,[12],binds
B11,binding,[10],no binding
